{"source": "PubChem BioAssay AID1240", "about": "(Sanford-Burnham Center for Chemical Genomics, 2008)", "note": "About 800 (1.6%) of roughly 50,000 compounds showed an effect of 50% or more. Some of the results follow.", "data": [{"molecular_target": "Bcl-2-like protein 10 (Homo sapiens) (UniProt Q9HD36)", "sequence (Q9HD36 whole entry, looked up)": "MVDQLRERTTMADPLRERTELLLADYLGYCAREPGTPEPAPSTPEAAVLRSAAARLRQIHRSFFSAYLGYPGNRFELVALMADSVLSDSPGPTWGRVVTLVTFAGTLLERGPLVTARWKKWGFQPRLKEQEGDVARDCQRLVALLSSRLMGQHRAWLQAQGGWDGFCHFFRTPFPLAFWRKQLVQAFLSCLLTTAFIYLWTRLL", "test": "Phenotype converters, Bcl-B/TR3 peptide binding displacement, primary biochemical FP (AID 1240);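 further: 0% = Bcl-B with tracer peptide and DMSO and 100% = tracer peptide lacking Bcl-B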", "conditions": "GST-Bcl-B / FITC-TR3 peptide fluorescence polarization; stronger effect = higher value; compound at 3.75 mg/L", "units": {"displacement": "%"}, "values": [{"smiles": "Cc1ccc(NC(=O)C(=O)N/N=C/c2cccs2)cc1C", "displacement": 6.4}, {"smiles": "COc1ccc(OC)c(N2C(=O)C3C4C=CC(CC4)C3C2=O)c1", "note": "(centres undefined)", "displacement": -6}, {"smiles": "COc1ccc(CCNC(=O)N2C(=O)C=CC2=O)cc1OC", "displacement": -4.6}, {"smiles": "O=C(Nc1cc(C(F)(F)F)cc(C(F)(F)F)c1)c1ccc(Br)o1", "displacement": -2.9}, {"smiles": "COc1ccc(/C=C/c2cc[n+](C)cc2)cc1", "displacement": 0.7}, {"smiles": "COc1cccc(N2C(=O)C(=O)/C(=C(\\O)c3ccccc3)C2c2ccc(F)cc2)c1", "note": "(centres undefined)", "displacement": 2.1}, {"smiles": "Clc1ccccc1-c1nc(-c2ccccn2)no1", "displacement": -8.5}, {"smiles": "CCOc1ccc(S(=O)(=O)N(CC(=O)Nc2ccc(Cl)cc2)c2ccc(C)cc2)cc1", "displacement": 14.1}, {"smiles": "COc1ccc(N2C(=O)/C(=C\\c3ccccc3C)SC2=S)cc1", "displacement": 1.6}, {"smiles": "O=C(CSc1nc2sc3c(c2c(=O)n1-c1ccccc1)CCC3)Nc1ccccc1[N+](=O)[O-]", "displacement": -2.8}, {"smiles": "O=C(Nc1cccc(CCc2ccccn2)c1)Nc1cccc2ccccc12", "displacement": -0.7}, {"smiles": "Cc1cccc(C(=O)Nc2ccc(S(=O)(=O)Nc3nccs3)cc2)c1", "displacement": 9.9}, {"smiles": "O=C(COc1ccccc1[N+](=O)[O-])Nc1ccc2oc(-c3cccc(F)c3)nc2c1", "displacement": 8.3}, {"smiles": "Cc1onc(-c2ccccc2Cl)c1C(=O)Nc1ccc(C(C)C)cc1", "displacement": 10.1}, {"smiles": "COc1ccc(C2NC(=S)NC(C)=C2C(=O)Nc2ccc(Cl)cc2)cc1OC", "note": "(centres undefined)", "displacement": -5.7}, {"smiles": "CCN1C(=O)/C(=C\\c2cc(OC)c(OC)c(OC)c2)SC1=S", "displacement": -6.5}, {"smiles": "O=C(NNS(=O)(=O)c1ccc2ccccc2c1)c1ccc(Cl)cc1", "displacement": -4.5}, {"smiles": "CCOC(=O)C1C(=O)C=C(Nc2ccc(OC)cc2)CC1c1ccccc1", "note": "(centres undefined)", "displacement": 2.2}, {"smiles": "O=C(N/N=C/c1ccco1)c1cc(-c2ccc3ccccc3c2)n[nH]1", "displacement": -13.5}, {"smiles": "C=C(C)CN1CCN(S(=O)(=O)c2ccc3c(c2)Cc2cc(S(=O)(=O)N4CCN(CC(=C)C)CC4)ccc2-3)CC1", "displacement": 31.6}, {"smiles": "Cc1ccc2nc(-c3ccc(N)cc3)oc2c1", "displacement": 11.1}, {"smiles": "Cc1ccc(C(=O)/C=C/Nc2cccc(O)c2)cc1", "displacement": -0.4}, {"smiles": "COc1ccccc1/C=C1\\C(=O)NC(=S)N(c2ccc(Br)cc2)C1=O", "displacement": 13.6}, {"smiles": "O=C1S/C(=C\\c2ccco2)C(=O)N1Cc1ccccc1", "displacement": -6}, {"smiles": "Cc1cc(C)cc(N2C(=O)NC(=O)/C(=C\\c3cc(Br)c(O)c([N+](=O)[O-])c3)C2=O)c1", "displacement": 3.6}, {"smiles": "CC(=O)c1ccc(NC(=O)/C=C/c2cccc([N+](=O)[O-])c2)cc1", "displacement": 3}, {"smiles": "Cn1c(=O)c2c(nc(NCc3ccccc3)n2C)n(C)c1=O", "displacement": -2.7}, {"smiles": "CCOC(=O)C(=CNc1ccc(C(C)C)cc1)C(=O)OCC", "displacement": -3.8}, {"smiles": "O=C(CN1C(=O)/C(=C/c2ccccc2)SC1=S)Nc1cccc(O)c1", "displacement": 35.7}, {"smiles": "COc1ccc2oc(C)c(C(=O)O)c2c1", "displacement": 22.6}, {"smiles": "CCOC(=O)Nc1ccc(Br)cc1C(c1ccccc1)N(CC(=O)OC)C(=O)OCC", "note": "(centres undefined)", "displacement": 21.2}, {"smiles": "CCCn1c(C(O)c2ccc(N(C)C)cc2)nc2ccccc21", "note": "(centres undefined)", "displacement": 5.3}, {"smiles": "COC(=O)COc1c(Cl)cc(/C=C(/C#N)C(=O)Nc2cccc(Br)c2)cc1Cl", "displacement": -15.1}, {"smiles": "COc1ccc(-n2c(=O)c3c4c(sc3n3c(SCCC(C)C)nnc23)CCCC4)cc1", "displacement": 89.8}, {"smiles": "O=C(O)c1ccc2c(c1)C(=O)N(c1ccc(S)cc1)C2=O", "displacement": -9.6}, {"smiles": "Cc1ccc(C23CC4CC(CC(C(=O)Nc5ccccn5)(C4)C2)C3)cc1", "displacement": -10.1}, {"smiles": "COc1ccc(S(=O)(=O)Nc2ccc(C(=O)Nc3ccccc3)cc2)cc1Br", "displacement": 11.8}, {"smiles": "Cc1c(OCc2ccc(F)cc2)ccc2c1oc(=O)c1ccccc12", "displacement": 10}, {"smiles": "COc1cc2c(cc1OC)C(c1ccc(Br)cc1)OC1=C2C(=O)c2ccccc21", "note": "(centres undefined)", "displacement": 0.4}, {"smiles": "COc1ccc(CSc2nnc3nc(C)cc(C)n23)cc1", "displacement": 27.4}, {"smiles": "COC(=O)/C(=C/c1ccccc1)C(C)=O", "displacement": 7.6}, {"smiles": "Cc1cc(Cl)ccc1OCC(=O)NNC(=O)c1cc(Cl)ccc1O", "displacement": -4.7}, {"smiles": "COc1ccc(C(=O)Nc2ccc(OC(F)(F)F)cc2)cc1", "displacement": -3.2}, {"smiles": "Cc1cccc(/C(N)=N/OC(=O)COc2ccccc2C)c1", "displacement": -7.2}, {"smiles": "COc1cc2ccccc2cc1C(=O)Nc1cccc(-c2cc3ccccc3oc2=O)c1", "displacement": 2}, {"smiles": "Cc1cc2nc(-c3ccc(C)c(NC(=O)c4ccc([N+](=O)[O-])cc4Cl)c3)oc2cc1C", "displacement": 8.7}, {"smiles": "CC(C)(C)c1cc(Cc2ccccc2)[nH]n1", "displacement": 5.9}, {"smiles": "COc1cc(C2SCC(=O)N2CCc2ccc(OC)c(OC)c2)ccc1O", "note": "(centres undefined)", "displacement": 0}, {"smiles": "Nc1ccc(C(=O)CC2(O)C(=O)Nc3ccccc32)cc1", "note": "(centres undefined)", "displacement": 6.5}, {"smiles": "CCN(CC)S(=O)(=O)c1cc(C(N)=O)ccc1Br", "displacement": -2.5}, {"smiles": "Cc1ccc(C(=O)Nc2sc3c(c2C(=O)N2CCOCC2)CCC(C)C3)cc1", "note": "(centres undefined)", "displacement": 1.7}, {"smiles": "O=C(CSc1nc2ccc(N3C(=O)c4ccccc4C3=O)cc2s1)NCCOc1ccccc1", "displacement": 0.1}, {"smiles": "COC(=O)C1CC(=O)N(c2ccccc2)C1", "note": "(centres undefined)", "displacement": 8.6}, {"smiles": "O=C(N/N=C\\c1ccc(O)cc1O)C(=O)N/N=C/c1ccc(O)cc1O", "displacement": 34.1}]}]}
